Structures can show the parent of a compound that is named as a salt. ± gives the standard deviation of the averaged measurements. In all, about 2,000 compounds were measured (“cell viability relative to DMSO control (compound alone)”: median about 0.98, lowest 2% from about 0.23 on). The list shows a part of the results.

The assay concerns PDC-DUC18828. Kind of assay: cell viability relative to DMSO control (compound alone) (fraction); PDC-DUC18828 is a patient-derived cholangiocarcinoma cell line; higher = less growth inhibition. The following applies: 1 µM; 72 h. As to the method:
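Selleck Bioactive library screen in the patient-derived FGFR2-G3BP2 fusion-positive ICC cell line PDC-DUC18828 (500 cells/well). Each compound was tested at 1 uM alone, in triplicate, for 72 h. Viability was read by CellTiter-Glo and normalised to plate DMSO controls.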
Turning to `Cc1cc(C)c2c(c1)[C@@H](N(Cc1cc(C(F)(F)F)cc(C(F)(F)F)c1)c1nnn(C)n1)CCCN2C[C@H]1CC[C@H](C(=O)O)CC1`, the cell viability came to 0.941 ± 0.038.
Next, `CCCCN(Cc1ccc(C(=O)NO)cc1)C(=O)Nc1ccccc1` [Nexturastat A]: 0.942 ± 0.033; `COC(=O)N[C@H](C(=O)N1CCC[C@H]1c1ncc(-c2ccc(-c3ccc(-c4cnc([C@@H]5CCCN5C(=O)[C@@H](NC(=O)OC)C(C)C)[nH]4)cc3)cc2)[nH]1)C(C)C`: 0.914 ± 0.013; `CC(C(=O)O)c1cccc(C(=O)c2ccccc2)c1` (configuration not stated) [Ketoprofen]: 1.043 ± 0.0072.
As to `c1cc(-c2cnn3cc(-c4ccc(N5CCNCC5)cc4)cnc23)c2cccnc2c1`, the cell viability is 0.899 ± 0.061.
Next, `NCCCC[C@@H]1NC(=O)[C@@H](Cc2ccccc2)NC(=O)[C@H](CC(=O)O)NC(=O)CNC(=O)[C@H](CCCN=C(N)N)NC1=O` [Cyclo (-RGDfK)]: 1.03 ± 0.035.
In turn, `CCCC1O[C@@H]2C[C@H]3[C@@H]4CCC5=CC(=O)C=C[C@]5(C)[C@H]4[C@@H](O)C[C@]3(C)[C@]2(C(=O)CO)O1` (some centres not stated) [Budesonide] had a cell viability of 0.966 ± 0.068.
The value for `CNC(=O)[C@@H](c1ccccc1)N1CCc2cc(OC)c(OC)cc2[C@@H]1CCc1ccc(C(F)(F)F)cc1` [Almorexant HCl] was 1.03 ± 0.039; that for `COc1cc(C(C)=O)ccc1OCCCN1CCC(c2noc3cc(F)ccc23)CC1` [Iloperidone] was 1.04 ± 0.03.
`COc1ccc(/C=C\c2cc(OC)c(OC)c(OC)c2)cc1O` [Combretastatin A4] had a cell viability of 0.285 ± 0.005.
Take `CN1C(CCl)Nc2cc(Cl)c(S(N)(=O)=O)cc2S1(=O)=O` (configuration not stated) [Methyclothiazide]: the cell viability is 1.09 ± 0.033.
The value for `C=CC1=C(C(=O)O)N2C(=O)[C@@H](NC(=O)/C(=N\O)c3csc(N)n3)[C@H]2SC1` [Cefdinir] was 1.08 ± 0.071.
Next, `OCc1ccccc1O[C@@H]1O[C@H](CO)[C@@H](O)[C@H](O)[C@H]1O` [Salicin]: 0.971 ± 0.011.
Turning to `C=C1CC[C@@H]2[C@](C)(CO)[C@H](O)CC[C@@]2(C)[C@@H]1C/C=C1/C(=O)OC[C@H]1O` [Andrographolide], the cell viability was determined as 1 ± 0.024.
Take `CC(=O)NS(=O)(=O)c1ccc(N)cc1` [Sulfacetamide Sodium]: the cell viability is 0.994 ± 0.034.
`Cc1cn([C@H]2C=C[C@@H](CO)O2)c(=O)[nH]c1=O` [Stavudine (d4T)] had a cell viability of 0.969 ± 0.021.
Next, `CC/C(=C(\c1ccc(O)cc1)c1ccc(OCCNC)cc1)c1ccccc1` [Endoxifen HCl]: 1.01 ± 0.035.
Compound `Cc1ccc(S(=O)(=O)Cc2nc(-c3ccc(C(=O)NCc4cccnc4)cc3)oc2C)cc1` gave a cell viability of 0.366 ± 0.0015.
Next, `COc1cccc2c1C(=O)c1c(O)c3c(c(O)c1C2=O)C[C@@](O)(C(C)=O)C[C@@H]3O[C@H]1C[C@H](N)[C@H](O)[C@H](C)O1` [Daunorubicin HCl]: 0.0913 ± 0.011.
Next, `CNC(=O)c1ccccc1Nc1cc(Nc2ccc(N3CCOCC3)cc2OC)ncc1C(F)(F)F`: 0.749 ± 0.023; `CNC(=O)c1cc(Oc2ccc(NC(=O)Nc3ccc(Cl)c(C(F)(F)F)c3)cc2)ccn1` [Sorafenib]: 1.05 ± 0.043; `CNC(=O)c1cc(Oc2ccc(NC(=O)Nc3ccc(Cl)c(C(F)(F)F)c3)cc2)ccn1` [Sorafenib Tosylate]: 1.03 ± 0.028.
`CN(c1ccccc1CNc1nc(Nc2ccc3c(c2)CC(=O)N3)ncc1C(F)(F)F)S(C)(=O)=O` registered a cell viability of 0.79 ± 0.028.
In turn, `CCN(CC)CC(=O)Nc1c(C)cccc1C` [Lidocaine] had a cell viability of 1.01 ± 0.012.
`CC(=O)c1cc2c(o1)C(=O)c1ccccc1C2=O` [Napabucasin] came in with a cell viability of 0.0105 ± 0.00081.
Consider `CC(C=CC(=O)NO)=CC(C)C(=O)c1ccc(N(C)C)cc1` (configuration not stated) [Trichostatin A (TSA)], for which the cell viability turned out to be 0.15 ± 0.018.
The value for `c1ccc2c(CC3=NCCN3)cccc2c1` [Naphazoline HCl] was 1.02 ± 0.026; that for `CC(=O)OCC(=O)[C@@]12OC(C)(C)O[C@@H]1C[C@H]1[C@@H]3C[C@H](F)C4=CC(=O)C=C[C@]4(C)[C@@]3(F)[C@@H](O)C[C@@]12C` [Fluocinonide] was 0.958 ± 0.054; that for `COc1nc(OCc2cccc(-c3ccccc3)c2C)ccc1CNCCNC(C)=O` [PD-1/PD-L1 inhibitor 2] was 0.968 ± 0.021.
With `CCC(C)(Oc1ccc(C2(c3ccc(OC(C)(CC)C(=O)O)cc3)CCCCC2)cc1)C(=O)O` (configuration not stated) [Clinofibrate], the cell viability amounted to 1.05 ± 0.032.
The value for `C[C@@H](O[C@H]1OCCN(Cc2nn(P(=O)(O)O)c(=O)[nH]2)[C@H]1c1ccc(F)cc1)c1cc(C(F)(F)F)cc(C(F)(F)F)c1` [Fosaprepitant dimeglumine salt] was 0.94 ± 0.03; that for `CNc1cc(-c2cccc(Cl)c2Cl)nc(N)n1` was 0.817 ± 0.067; that for `c1nc2c(NC3CCCCC3)nc(Nc3ccc(N4CCOCC4)cc3)nc2[nH]1` [Reversine] was 0.719 ± 0.042.
Next, `COc1cc2nccc(Oc3ccc(NC(=O)NC4CC4)c(Cl)c3)c2cc1C(N)=O` [Lenvatinib (E7080)]: 0.844 ± 0.025; `CC(C)(CO)c1cc2cc(NC(=O)C3(c4ccc5c(c4)OC(F)(F)O5)CC3)c(F)cc2n1C[C@@H](O)CO`: 0.986 ± 0.054.
`Cc1c(CN2CCN(C(=O)[C@H](C)O)CC2)sc2c(N3CCOCC3)nc(-c3cnc(N)nc3)nc12` registered a cell viability of 0.616 ± 0.053.
Next, `CN1CCc2c(c3ccccc3n2Cc2ccc(C(=O)NO)cc2)C1` [Tubastatin A HCl]: 1.03 ± 0.079; `CN1CCc2c(c3ccccc3n2Cc2ccc(C(=O)NO)cc2)C1` [Tubastatin A]: 0.954 ± 0.032; `CC[C@@H]1C(=O)OC[C@@H]1Cc1cncn1C` [Pilocarpine HCl]: 0.988 ± 0.026.
`CS(=O)(=O)OCCCCOS(C)(=O)=O` [Busulfan] gave a cell viability of 1.02 ± 0.054.
`O=C(/C=C/c1ccc(O)cc1)c1ccc(O)cc1O` [Isoliquiritigenin] returned a cell viability of 0.922 ± 0.031.
Next, `N#Cc1ccc(-c2csc(NN=C3CCCC3)n2)cc1` [Remodelin]: 0.973 ± 0.083; `N#CCNC(=O)c1ccc(-c2ccnc(Nc3ccc(N4CCOCC4)cc3)n2)cc1`: 0.906 ± 0.048; `OCc1c[nH]c2ccccc12` [Indole-3-carbinol]: 0.874 ± 0.059.
Consider `Cc1ncc(-c2ccnc(Nc3ccc(S(C)(=O)=O)cc3)n2)n1C(C)C`, for which the cell viability was 0.88 ± 0.032.
The compound `Cc1ccc(=O)n(-c2ccccc2)c1` [Pirfenidone] showed a cell viability of 1.01 ± 0.033.
The value for `COc1ccc(C2CC(=O)c3c(O)cc(OC4OC(COC5OC(C)C(O)C(O)C5O)C(O)C(O)C4O)cc3O2)cc1OC` (configuration not stated) [Methyl-Hesperidin] was 0.962 ± 0.071.

The record behind these values is the supplement of paper PMC9588766.
